Source: the supplement of paper PMC8728848
The list shows a part of the results.

What was measured:
Experiment in all cases: glycan array binding signal (z-score within array); higher = stronger binding
Conditions in all cases: glycan notation: IUPAC condensed, linker removed
Fuc(a1-2)Gal = target: Fuc(a1-2)Gal
Method in brief: (§1)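 From the Consortium for Functional Glycomics database, 3228 arrays were curated, keeping only those whose protein sequence was available. Binding is given as a within-array Z-score averaged across arrays sharing a protein sequence and across linkers. Negative Z-scores can be read as non-binding.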

Fuc(a1-2)Gal(b1-3)GalNAc = target: Fuc(a1-2)Gal(b1-3)GalNAc
Method in brief: as §1

[1] = target: Fuc(a1-2)Gal(b1-3)GalNAc(a1-3)[Fuc(a1-2)]Gal(b1-4)Glc
Method in brief: as §1

[2] = target: Fuc(a1-2)Gal(b1-3)GalNAc(a1-3)[Fuc(a1-2)]Gal(b1-4)GlcNAc
Method in brief: as §1

[3] = target: Fuc(a1-2)Gal(b1-3)GalNAc(b1-3)Gal
Method in brief: as §1

[4] = target: Fuc(a1-2)Gal(b1-3)GalNAc(b1-3)Gal(a1-4)Gal(b1-4)Glc
Method in brief: as §1

[5] = target: Fuc(a1-2)Gal(b1-3)GalNAc(b1-4)[Neu5Ac(a2-3)]Gal(b1-4)Glc
Method in brief: as §1

Fuc(a1-2)Gal(b1-3)GlcNAc = target: Fuc(a1-2)Gal(b1-3)GlcNAc
Method in brief: as §1

[6] = target: Fuc(a1-2)Gal(b1-3)GlcNAc(b1-2)Man(a1-3)[Fuc(a1-2)Gal(b1-3)GlcNAc(b1-2)Man(a1-6)]Man(b1-4)GlcNAc(b1-4)GlcNAc
Method in brief: as §1

[7] = target: Fuc(a1-2)Gal(b1-3)GlcNAc(b1-3)Gal(b1-4)Glc
Method in brief: as §1

[8] = target: Fuc(a1-2)Gal(b1-3)GlcNAc(b1-3)[Fuc(a1-3)[Gal(b1-4)]GlcNAc(b1-6)]Gal(b1-4)Glc
Method in brief: as §1

[9] = target: Fuc(a1-2)Gal(b1-3)[Fuc(a1-4)]GlcNAc
Method in brief: as §1

[10] = target: Fuc(a1-2)Gal(b1-3)[Fuc(a1-4)]GlcNAc(b1-2)Man(a1-3)[Fuc(a1-2)Gal(b1-3)[Fuc(a1-4)]GlcNAc(b1-2)Man(a1-6)]Man(b1-4)GlcNAc(b1-4)GlcNAc
Method in brief: as §1

[11] = target: Fuc(a1-2)Gal(b1-3)[Fuc(a1-4)]GlcNAc(b1-3)[Fuc(a1-3)[Gal(b1-4)]GlcNAc(b1-6)]Gal(b1-4)Glc
Method in brief: as §1

[12] = target: Fuc(a1-2)Gal(b1-3)[Fuc(a1-4)]GlcNAc(b1-3)[Gal(b1-4)GlcNAc(b1-6)]Gal(b1-4)Glc
Method in brief: as §1

Fuc(a1-2)Gal(b1-4)Glc = target: Fuc(a1-2)Gal(b1-4)Glc
Method in brief: as §1

Fuc(a1-2)Gal(b1-4)Glc6S = target: Fuc(a1-2)Gal(b1-4)Glc6S
Method in brief: as §1

Fuc(a1-2)Gal(b1-4)GlcNAc = target: Fuc(a1-2)Gal(b1-4)GlcNAc
Method in brief: as §1

[13] = target: Fuc(a1-2)Gal(b1-4)GlcNAc(b1-2)Man(a1-3)[Fuc(a1-2)Gal(b1-4)GlcNAc(b1-2)Man(a1-6)]Man(b1-4)GlcNAc(b1-4)GlcNAc
Method in brief: as §1

[14] = target: Fuc(a1-2)Gal(b1-4)GlcNAc(b1-3)Gal(b1-4)GlcNAc
Method in brief: as §1

[15] = target: Fuc(a1-2)Gal(b1-4)GlcNAc(b1-3)Gal(b1-4)GlcNAc(b1-3)Gal(b1-4)GlcNAc
Method in brief: as §1

[16] = target: Fuc(a1-2)Gal(b1-4)GlcNAc(b1-3)GalNAc
Method in brief: as §1

[17] = target: Fuc(a1-2)Gal(b1-4)GlcNAc6S
Method in brief: as §1

[18] = target: Fuc(a1-2)Gal(b1-4)[Fuc(a1-3)]GlcNAc
Method in brief: as §1

[19] = target: Fuc(a1-2)Gal(b1-4)[Fuc(a1-3)]GlcNAc(b1-2)Man(a1-3)[Fuc(a1-2)Gal(b1-4)[Fuc(a1-3)]GlcNAc(b1-2)Man(a1-6)]Man(b1-4)GlcNAc(b1-4)GlcNAc
Method in brief: as §1

[20] = target: Fuc(a1-2)Gal(b1-4)[Fuc(a1-3)]GlcNAc(b1-3)Gal(b1-4)[Fuc(a1-3)]GlcNAc
Method in brief: as §1

[21] = target: Fuc(a1-2)Gal(b1-4)[Fuc(a1-3)]GlcNAc(b1-3)Gal(b1-4)[Fuc(a1-3)]GlcNAc(b1-3)Gal(b1-4)[Fuc(a1-3)]GlcNAc
Method in brief: as §1

Fuc(a1-2)Gal6S(b1-4)Glc = target: Fuc(a1-2)Gal6S(b1-4)Glc
Method in brief: as §1

[22] = target: Fuc(a1-2)Gal6S(b1-4)Glc6S
Method in brief: as §1

[23] = target: Fuc(a1-2)Gal6S(b1-4)GlcNAc
Method in brief: as §1

Fuc(a1-2)[Gal(a1-3)]Gal = target: Fuc(a1-2)[Gal(a1-3)]Gal
Method in brief: as §1

[24] = target: Fuc(a1-2)[Gal(a1-3)]Gal(b1-3)GlcNAc
Method in brief: as §1

[25] = target: Fuc(a1-2)[Gal(a1-3)]Gal(b1-3)GlcNAc(b1-2)Man(a1-3)[Fuc(a1-2)[Gal(a1-3)]Gal(b1-3)GlcNAc(b1-2)Man(a1-6)]Man(b1-4)GlcNAc(b1-4)GlcNAc
Method in brief: as §1

[26] = target: Fuc(a1-2)[Gal(a1-3)]Gal(b1-4)Glc
Method in brief: as §1

[27] = target: Fuc(a1-2)[Gal(a1-3)]Gal(b1-4)GlcNAc
Method in brief: as §1

[28] = target: Fuc(a1-2)[Gal(a1-3)]Gal(b1-4)GlcNAc(b1-2)Man(a1-3)[Fuc(a1-2)[Gal(a1-3)]Gal(b1-4)GlcNAc(b1-2)Man(a1-6)]Man(b1-4)GlcNAc(b1-4)GlcNAc
Method in brief: as §1

[29] = target: Fuc(a1-2)[Gal(a1-3)]Gal(b1-4)[Fuc(a1-3)]GlcNAc
Method in brief: as §1

B1: Galatrox (Botrops atrox), P0DM53 (protein)
chain: NNCPQDWLPMNGLCYKIFDELKAWKDAEMFCRKYKPGCHLASIILYGESPEWAEGHSEVWLGLWDKKKDFSWEWTDR
Q: B1 was tested. Which “glycan array binding signal (z-score)” value (Fuc(a1-2)Gal) did it give?
A: -0.361

Q: What about the “glycan array binding signal (z-score)” value (Fuc(a1-2)Gal(b1-3)GalNAc) of the same binder?
A: -0.358

Q: What about the “glycan array binding signal (z-score)” value [1] of the same binder?
A: -0.354

Q: What about the “glycan array binding signal (z-score)” value [2] of the same binder?
A: -0.363

Q: And the “glycan array binding signal (z-score)” value [3]?
A: -0.365

Q: What about the “glycan array binding signal (z-score)” value [4] of the same binder?
A: -0.358

Q: And the “glycan array binding signal (z-score)” value [5]?
A: -0.358

Q: And the “glycan array binding signal (z-score)” value (Fuc(a1-2)Gal(b1-3)GlcNAc)?
A: -0.36

Q: What about the “glycan array binding signal (z-score)” value [6] of the same binder?
A: -0.357

Q: And the “glycan array binding signal (z-score)” value [7]?
A: -0.369

Q: What about the “glycan array binding signal (z-score)” value [8] of the same binder?
A: -0.364

Q: And the “glycan array binding signal (z-score)” value [9]?
A: -0.363

Q: What about the “glycan array binding signal (z-score)” value [10] of the same binder?
A: -0.293

Q: And the “glycan array binding signal (z-score)” value [11]?
A: 0.366

Q: And the “glycan array binding signal (z-score)” value [12]?
A: 0.872

Q: What about the “glycan array binding signal (z-score)” value (Fuc(a1-2)Gal(b1-4)Glc) of the same binder?
A: -0.364

Q: What about the “glycan array binding signal (z-score)” value (Fuc(a1-2)Gal(b1-4)Glc6S) of the same binder?
A: -0.355

Q: And the “glycan array binding signal (z-score)” value (Fuc(a1-2)Gal(b1-4)GlcNAc)?
A: -0.364

Q: And the “glycan array binding signal (z-score)” value [13]?
A: -0.264

Q: And the “glycan array binding signal (z-score)” value [14]?
A: -0.362

Q: What about the “glycan array binding signal (z-score)” value [15] of the same binder?
A: -0.357

Q: And the “glycan array binding signal (z-score)” value [16]?
A: -0.36

Q: What about the “glycan array binding signal (z-score)” value [17] of the same binder?
A: -0.349

Q: What about the “glycan array binding signal (z-score)” value [18] of the same binder?
A: -0.364

Q: What about the “glycan array binding signal (z-score)” value [19] of the same binder?
A: 0.123

Q: And the “glycan array binding signal (z-score)” value [20]?
A: -0.349

Q: What about the “glycan array binding signal (z-score)” value [21] of the same binder?
A: -0.346

Q: What about the “glycan array binding signal (z-score)” value (Fuc(a1-2)Gal6S(b1-4)Glc) of the same binder?
A: -0.358

Q: What about the “glycan array binding signal (z-score)” value [22] of the same binder?
A: -0.373

Q: What about the “glycan array binding signal (z-score)” value [23] of the same binder?
A: -0.367

Q: What about the “glycan array binding signal (z-score)” value (Fuc(a1-2)[Gal(a1-3)]Gal) of the same binder?
A: -0.363

Q: And the “glycan array binding signal (z-score)” value [24]?
A: -0.346

Q: And the “glycan array binding signal (z-score)” value [25]?
A: -0.079

Q: And the “glycan array binding signal (z-score)” value [26]?
A: -0.38

Q: What about the “glycan array binding signal (z-score)” value [27] of the same binder?
A: -0.351

Q: What about the “glycan array binding signal (z-score)” value [28] of the same binder?
A: -0.278

Q: What about the “glycan array binding signal (z-score)” value [29] of the same binder?
A: -0.343
